# According to the supplement of paper PMC8728848:
# The other results are listed elsewhere or left out.
# B1: AT1G15820(2) (Arabidopsis thaliana), Q9LMQ2 (protein)
# chain: MAMAVSGAVLSGLGSSFLTGGKRGATALASGVGTGAQRVGRKTLIVAAAAAQPKKSWIPAVKGGGNFLDPEWLDGSLPGDFGFDPLGLGKDPAFLKWYREAELIHGRWAMAAVLGIFVGQAWSGVAWFEAGAQPDAIAPFSFGSLLGTQLLLMGWVESKRWVDFFNPDSQSVEWATPWSKTAENFANYTGDQGYPGGRFFDPLGLAGKNRDGVYEPDFEKLERLKLAEIKHSRLAMVAMLIFYFEAGQGKTPLGALGL
# Key:
# Experiment in all cases: glycan array binding signal (z-score within array); higher = stronger binding
# Settings in all cases: glycan notation: IUPAC condensed, linker removed
# [1] = target: Gal(b1-4)GlcNAc(b1-6)Gal(b1-4)GlcNAc
# How it was run: (§1)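 Glycan array binding is given as a within-array Z-score, which can be read as non-binding when negative. The arrays, 3228 of them, came from the Consortium for Functional Glycomics database and were retained only where the protein sequence was available. Z-scores were averaged across arrays of the same protein sequence at different concentrations or buffers and across linkers.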
# [2] = target: Gal(b1-4)GlcNAc(b1-6)GalNAc
# How it was run: as §1
# [3] = target: Gal(b1-4)GlcNAc(b1-6)[Gal(b1-3)]GalNAc
# How it was run: as §1
# [4] = target: Gal(b1-4)GlcNAc(b1-6)[Gal(b1-4)GlcNAc(b1-3)]GalNAc
# How it was run: as §1
# Gal(b1-4)GlcNAc6P = target: Gal(b1-4)GlcNAc6P
# How it was run: as §1
# Gal(b1-6)Gal = target: Gal(b1-6)Gal
# How it was run: as §1
# Gal3S(b1-3)GalNAc = target: Gal3S(b1-3)GalNAc
# How it was run: as §1
# Gal3S(b1-3)GlcNAc = target: Gal3S(b1-3)GlcNAc
# How it was run: as §1
# [5] = target: Gal3S(b1-3)[Fuc(a1-4)]GlcNAc
# How it was run: as §1
# Gal3S(b1-4)Glc = target: Gal3S(b1-4)Glc
# How it was run: as §1
# Gal3S(b1-4)Glc6S = target: Gal3S(b1-4)Glc6S
# How it was run: as §1
# Gal3S(b1-4)GlcNAc = target: Gal3S(b1-4)GlcNAc
# How it was run: as §1
# [6] = target: Gal3S(b1-4)[Fuc(a1-3)]Glc6S
# How it was run: as §1
# [7] = target: Gal3S(b1-4)[Fuc(a1-3)]GlcNAc
# How it was run: as §1
# [8] = target: Gal3S(b1-4)[Fuc(a1-3)]GlcNAc6S
# How it was run: as §1
# Gal3S4S(b1-4)GlcNAc = target: Gal3S4S(b1-4)GlcNAc
# How it was run: as §1
# Gal3S6S(b1-4)GlcNAc = target: Gal3S6S(b1-4)GlcNAc
# How it was run: as §1
# Gal3S6S(b1-4)GlcNAc6S = target: Gal3S6S(b1-4)GlcNAc6S
# How it was run: as §1
# Gal4S(b1-4)GlcNAc = target: Gal4S(b1-4)GlcNAc
# How it was run: as §1
# Gal4S6S(b1-4)GlcNAc = target: Gal4S6S(b1-4)GlcNAc
# How it was run: as §1
# Gal6P(b1-4)GlcNAc = target: Gal6P(b1-4)GlcNAc
# How it was run: as §1
# Gal6S(b1-3)GlcNAc = target: Gal6S(b1-3)GlcNAc
# How it was run: as §1
# Gal6S(b1-3)GlcNAc6S = target: Gal6S(b1-3)GlcNAc6S
# How it was run: as §1
# Gal6S(b1-4)Glc = target: Gal6S(b1-4)Glc
# How it was run: as §1
# Gal6S(b1-4)Glc6S = target: Gal6S(b1-4)Glc6S
# How it was run: as §1
# Gal6S(b1-4)GlcNAc = target: Gal6S(b1-4)GlcNAc
# How it was run: as §1
# Gal6S(b1-4)GlcNAc6S = target: Gal6S(b1-4)GlcNAc6S
# How it was run: as §1
# GalNAc(a1-3)Gal = target: GalNAc(a1-3)Gal
# How it was run: as §1
# GalNAc(a1-3)GalNAc = target: GalNAc(a1-3)GalNAc
# How it was run: as §1
# [9] = target: GalNAc(a1-3)GalNAc(b1-3)Gal(a1-4)Gal(b1-4)Glc
# How it was run: as §1
# [10] = target: GalNAc(a1-3)GalNAc(b1-3)Gal(a1-4)Gal(b1-4)GlcNAc
# How it was run: as §1
# GalNAc(b1-3)Gal = target: GalNAc(b1-3)Gal
# How it was run: as §1
# [11] = target: GalNAc(b1-3)Gal(a1-4)Gal(b1-4)GlcNAc
# How it was run: as §1
# [12] = target: GalNAc(b1-3)Gal(a1-4)Gal(b1-4)GlcNAc(b1-3)Gal(b1-4)Glc
# How it was run: as §1
# [13] = target: GalNAc(b1-3)Gal(a1-6)Gal(b1-4)Glc
# How it was run: as §1
# GalNAc(b1-3)GalNAc = target: GalNAc(b1-3)GalNAc
# How it was run: as §1
# GalNAc(b1-3)GlcNAc = target: GalNAc(b1-3)GlcNAc
# How it was run: as §1
# GalNAc(b1-4)Gal(b1-4)Glc = target: GalNAc(b1-4)Gal(b1-4)Glc
# How it was run: as §1
binder,measurement,setting,value
B1,glycan array binding signal (z-score),[1],-0.457
same,glycan array binding signal (z-score),[2],0.696
same,glycan array binding signal (z-score),[3],-0.285
same,glycan array binding signal (z-score),[4],0.172
same,glycan array binding signal (z-score),Gal(b1-4)GlcNAc6P,-0.327
same,glycan array binding signal (z-score),Gal(b1-6)Gal,0.325
same,glycan array binding signal (z-score),Gal3S(b1-3)GalNAc,0.527
same,glycan array binding signal (z-score),Gal3S(b1-3)GlcNAc,0.833
same,glycan array binding signal (z-score),[5],-0.253
same,glycan array binding signal (z-score),Gal3S(b1-4)Glc,0.944
same,glycan array binding signal (z-score),Gal3S(b1-4)Glc6S,0.421
same,glycan array binding signal (z-score),Gal3S(b1-4)GlcNAc,-0.278
same,glycan array binding signal (z-score),[6],1.96
same,glycan array binding signal (z-score),[7],0.95
same,glycan array binding signal (z-score),[8],0.588
same,glycan array binding signal (z-score),Gal3S4S(b1-4)GlcNAc,-0.501
same,glycan array binding signal (z-score),Gal3S6S(b1-4)GlcNAc,-0.059
same,glycan array binding signal (z-score),Gal3S6S(b1-4)GlcNAc6S,1.14
same,glycan array binding signal (z-score),Gal4S(b1-4)GlcNAc,-0.105
same,glycan array binding signal (z-score),Gal4S6S(b1-4)GlcNAc,-0.06
same,glycan array binding signal (z-score),Gal6P(b1-4)GlcNAc,-0.581
same,glycan array binding signal (z-score),Gal6S(b1-3)GlcNAc,-0.225
same,glycan array binding signal (z-score),Gal6S(b1-3)GlcNAc6S,0.062
same,glycan array binding signal (z-score),Gal6S(b1-4)Glc,0.21
same,glycan array binding signal (z-score),Gal6S(b1-4)Glc6S,0.531
same,glycan array binding signal (z-score),Gal6S(b1-4)GlcNAc,0.19
same,glycan array binding signal (z-score),Gal6S(b1-4)GlcNAc6S,-0.432
same,glycan array binding signal (z-score),GalNAc(a1-3)Gal,-0.214
same,glycan array binding signal (z-score),GalNAc(a1-3)GalNAc,-0.169
same,glycan array binding signal (z-score),[9],-0.102
same,glycan array binding signal (z-score),[10],0.031
same,glycan array binding signal (z-score),GalNAc(b1-3)Gal,-0.276
same,glycan array binding signal (z-score),[11],3.99
same,glycan array binding signal (z-score),[12],-0.301
same,glycan array binding signal (z-score),[13],0.018
same,glycan array binding signal (z-score),GalNAc(b1-3)GalNAc,0.021
same,glycan array binding signal (z-score),GalNAc(b1-3)GlcNAc,-0.04
same,glycan array binding signal (z-score),GalNAc(b1-4)Gal(b1-4)Glc,0.252
